This is an account of results in publication PMC12136788.

To fix the notation:
T1: UNK ZnF1-3 (human, UniProt Q9C0B0 31-174)
T1 sequence: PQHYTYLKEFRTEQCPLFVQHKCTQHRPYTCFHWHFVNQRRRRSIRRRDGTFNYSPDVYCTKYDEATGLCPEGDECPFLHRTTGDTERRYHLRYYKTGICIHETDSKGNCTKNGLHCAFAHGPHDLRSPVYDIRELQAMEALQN

B1: 9406821_9406941_468_CDS_ENSG00000134077_ENST00000452837|human|control|control (ssRNA)
RNA: GGGAGUUCUACAGUCCGACGAUCUGAUGACCCAAGUUUCUCUCUGACUUCAUCUGCAGCUGUUUGCUCAAAGCCAGUAGGUACAGUGGCUCCAAUAGUGACUAGAAGCUCAGAUUCACUUCCGAGGUCACUUUCUGUCACUUGCAACAGAGGAUUGAGCAUCA
B2: 3040280_3040400_681_CDS_ENSG00000078246_ENST00000448120|human|control|control (ssRNA)
RNA: GGGAGUUCUACAGUCCGACGAUCAUUUUCUUCUUUUUCCAAGUACAUAUAGUAGGUGGGGAAGAGACCCCGAUCCAUUCCCCUUUUAUCCCGGAUUAUCCGACAUCUUACUGUGACACCUUGAGGGGCAGGACUAUACACAAACAACAGAGGAUUGAGCAUCA
B3: chr2:135163197:135163198:+_ENSMUSG00000051177_ENSMUST00000110116|mus_hu|motif|central (ssRNA)
RNA: GGGAGUUCUACAGUCCGACGAUCGAAGAGCUGAGGCAUAUAGUUGGAUGAAUCCACACGUGUUCCUUUUGGAUAUAUCCUGCGGAGCUGCAUUUUGUUAUAUUCUACAAAUUCCACUGGAGACUUGGUGAGUUGUUCAAGUCCCAACAGAGGAUUGAGCAUCA
B4: chr6:143133109:143133110:+_ENSMUSG00000030275_ENSMUST00000032413|mus_mus|FALSE|FALSE (ssRNA)
RNA: GGGAGUUCUACAGUCCGACGAUCUUUGGGGAUCCAGCCAUUGUGCGCAUGAAUAGCAUGGAUUUUAGCAAGCUGACGAGCUAUUAGCCUGAAAAUGGCUGGGUUGCAGACAUGCUGCGGGUCCAAAGCUUCGCCCUGGAUAAACAACAGAGGAUUGAGCAUCA
B5: chr14:52433459:52433460:+_ENSG00000186469_ENST00000556752|hu_mus|motif|central (ssRNA)
RNA: GGGAGUUCUACAGUCCGACGAUCGAUGGUUCUCCUUCCUCUCUUUAAAUGCUGUGGACGAGAAAGGCGCCCACUUUGCGGGGAACUCUACAUGUAUGUCCCAGGAGCCCCAACACUCUUCAGCCUCCUCUCAGAGACUUAAAGCAACAGAGGAUUGAGCAUCA
B6: chr7:74146866:74146867:+_ENSG00000077809_ENST00000416070|hu_mus|FALSE|FALSE (ssRNA)
RNA: GGGAGUUCUACAGUCCGACGAUCUUCCUUCGCCAGCAAUAUCCUCUCAAGGCGAGGAAUGCCGUACGUCGACGGCCUUCUAAAAGGAAUCCCUUCAGGAAGCCCUUCUACGUAAAGAUCUUCAACAUGGGACUGGAAAAGAGGCAACAGAGGAUUGAGCAUCA
B7: chr12:39756943:39756944:-_ENSG00000139116_ENST00000544797|hu_mus|hu_hu_hu_mus_False|38_48 (ssRNA)
RNA: GGGAGUUCUACAGUCCGACGAUCGGUUUGGCUGUUACCCCCAAGGGAAUCCUGCAAGAGUCUUGUCAGCUUAGAGUCUCUGUAAGGGACAUGUGUGGCCCUCUUGCUCUUGUCCCCCAAGGCGCUGAUUACAUUCCCAAGAGCCAACAGAGGAUUGAGCAUCA
B8: chr9:19378429:19378430:-_ENSG00000137154_ENST00000315377|hu_mus|FALSE|FALSE (ssRNA)
RNA: GGGAGUUCUACAGUCCGACGAUCACAACAUACUGGCGGACAUCAUCUUCUUUGGAGAGAUUAAAAAGCUUGCGGAUUCUACUAGCCCUUUUAGGUCCCAACCGACGAGGCACAGUAGUGUCUGUCAGUCCAGGAAUAUCCUUCCAACAGAGGAUUGAGCAUCA
B9: chr5:38918441:38918442:-_ENSMUSG00000005103_ENSMUST00000005234|mus_mus|FALSE|FALSE (ssRNA)
RNA: GGGAGUUCUACAGUCCGACGAUCGGACAAGGUACUGUCAGCGUGCCAGGUCAGGAACAAGACAGACAACAGUCAAGAUACAUUAAAAAAAAAAAAAGAAAAAAAUUCCCAUGAUUCCAUUCUUAAAAAUCAAGCACAAAAUCUCAACAGAGGAUUGAGCAUCA
B10: chr4:95690885:95690886:+_ENSMUSG00000028572_ENSMUST00000156910|mus_mus|mus_mus_mus_hu_False|28_28 (ssRNA)
RNA: GGGAGUUCUACAGUCCGACGAUCUUUAGAAAAUGUUAAAUACCAUGCUAAAAUAUUUUCAAAGGCUUAUUUUAUUUUACCAGAAGUCACAGGCAAGCAGACACUACAAACAUACAAGAAAAUGAAACUCAACAAUAUAACUGUCAACAGAGGAUUGAGCAUCA
B11: 48277764_48277884_2105_CDS_ENSMUSG00000038143_ENSMUST00000110367|mouse|control|control (ssRNA)
RNA: GGGAGUUCUACAGUCCGACGAUCCACACCACCAGAGGCUGCAGGGCCCCCUCCUGGCCCUUUCGGUGACUCCUCCUUGUGCCCAACAGGUUCCCUGGAAGAAUGGGGGGUCUGCCUCUCAGAUGGAGACAGCUUUUUUACCCCCAACAGAGGAUUGAGCAUCA
B12: chr3:148802587:148802588:-_ENSG00000071794_ENST00000310053|hu_hu|FALSE|FALSE (ssRNA)
RNA: GGGAGUUCUACAGUCCGACGAUCUCCAACCACAUGACCUCUCAAACUUCCAAAUAAAACGGAAUCUACUUCUUCAUCACUAGUUAGAAAGUCAUCUGGAGGGAUAACAUCUUGGAAUUCAAAACGUGGAAAGAAAGUUGGAUACAACAGAGGAUUGAGCAUCA
B13: 25298252_25298454_4651_CDS_ENSMUSG00000026944_ENSMUST00000102919|mouse|control|control (ssRNA)
RNA: GGGAGUUCUACAGUCCGACGAUCGUUGGCAGGAGACUUGAGCACACAAGUGGCACCCACACCAGAGGGCAGCCGGAAUGUGCUCACCAGCUGCUGGGGGCUGGCAUCAGGUGACAGCCGUAAUCGGUACUCCUGGCGUUCCUCCAACAGAGGAUUGAGCAUCA
B14: chr5:73697939:73697940:+_ENSMUSG00000029152_ENSMUST00000031038|mus_mus|FALSE|FALSE (ssRNA)
RNA: GGGAGUUCUACAGUCCGACGAUCUCCUUGGGCAAUAUGGUCAGUAAUACCAGUGGGAGUGGACUCGUUCAUAGAAGCACUAAAUGGAAUUGGCUCAUAACGAGGAAGCGCCUCCUUUUCUAUGUUGUCUGCUGCUGGAGAUGUCAACAGAGGAUUGAGCAUCA
B15: chr1:60041781:60041782:+_ENSMUSG00000041040_ENSMUST00000036540|mus_hu|mus_mus_mus_hu_False|78_88 (ssRNA)
RNA: GGGAGUUCUACAGUCCGACGAUCAAGUUUACAAUAGUAAAGUAAAUCAAAUUUAGUAAUGGCAAGUUUUAUUUUCCUUCACAAAAGAAAAUCUUUAUAACCCAGUCCUAGUCUUGGACAUAGUGAAAGCUAUAAAUUCUGACUCAACAGAGGAUUGAGCAUCA
B16: chr1:21268724:21268725:-_ENSG00000075151_ENST00000400422|hu_mus|FALSE|FALSE (ssRNA)
RNA: GGGAGUUCUACAGUCCGACGAUCGGCAAGUGGAGGAAGGCUGGUGGGUGAUGAAGUCCGAGGAGGCUCUGGGGUGGGCUCUCCUGCAGCAGUCUCAGGCAUCUGGCCUGCUUGCUCUUUCUUCUCCCCACUGAGUACGAGCCUCAACAGAGGAUUGAGCAUCA
B17: chr19:8913615:8913616:-_ENSMUSG00000071658_ENSMUST00000096259|mus_hu|mus_mus_mus_hu_False|28_88 (ssRNA)
RNA: GGGAGUUCUACAGUCCGACGAUCAGGGUACCAAAACCUUCUGCCUGAGAUAGGUGCCCCACCCAGUAGGGAGUUGCAGCUGAAAGUAUCUGAUGCAGAAGCAGUGAAUGCAGAGAAGGAGGCCCCUGGGGAGGGCCAGGCCAGCAACAGAGGAUUGAGCAUCA
B18: chr14:78183846:78183847:+_ENSG00000119705_ENST00000557342|hu_hu|hu_hu_hu_mus_False|68_98 (ssRNA)
RNA: GGGAGUUCUACAGUCCGACGAUCUCUCAGAAAUCUUUCUUUCUUUUAUGUUUGAGCUCCGUGCAAAAGUUUUGGCCUUUGAGCUUGAACGUGGAUCUAUGGGAGGGAAAGCACUGUCAGAAAAGGUAAUUUUUUUUUUAAAGACAACAGAGGAUUGAGCAUCA
B19: chr2:202488911:202488912:-_ENSG00000155755_ENST00000286196|hu_mus|hu_hu_hu_mus_False|68_98 (ssRNA)
RNA: GGGAGUUCUACAGUCCGACGAUCAUUGAAACAUUUUCAUAAUAUUGCAGUAGCAUUUCAGCAUUAUUAAUCAAAAACUCAAUUGUAAAUACAUGUAUCUUAUAAAAAUACACUUAAAAACACGAGUGGGGAGCGCAGGCGCCACAACAGAGGAUUGAGCAUCA
B20: 55347292_55347412_1824_3pUTR_ENSMUSG00000021488_ENSMUST00000099490|mouse|control|control (ssRNA)
RNA: GGGAGUUCUACAGUCCGACGAUCUGAUAAGGAAUCGCAAUCUGGAGUCUCAAAGUCUGUCUUAGCAGUGUUCUGUACACUGGAAGAAAAGAGGAAACUUCCUGGUGCAGUGCUAGACCCUGUGAGGCUGUUUGCUAUCCUGGACAACAGAGGAUUGAGCAUCA
B21: chr4:25749455:25749456:-_ENSG00000091490_ENST00000264868|hu_hu|hu_hu_hu_mus_False|88_108 (ssRNA)
RNA: GGGAGUUCUACAGUCCGACGAUCGCAAGCACUAGGAUAGAAAAAUCAUUCAAGGAGAAAAAUGUAAACCAAUGUACAAUGUUAUCGCCUUCCCUGUGUGUGGAGUGUUUGUCUCAAGGCUCCUUCUAGCUGCUGGAUUUGGGACAACAGAGGAUUGAGCAUCA
B22: 42177873_42177993_4935_3pUTR_ENSMUSG00000061080_ENSMUST00000099761|mouse|control|control (ssRNA)
RNA: GGGAGUUCUACAGUCCGACGAUCGAGAGGACCCUGUGACUGUGGGCUGAGAAGAAAGGACUUAAAAAGCAGUUUCACGCUGAGGAAUUUAGUUUCUGUAGGCAGAGGAGGUAAAGUCCAUCUUUGGAGGAGAAACAUACUUUUCAACAGAGGAUUGAGCAUCA

The list shows a part of the results.

In this assay the target is T1, UNK ZnF1-3. In words: nsRBNS (natural sequence RNA bind-n-seq); RBNS binding buffer (assumed for nsRBNS): 25 mM Tris pH 7.5, 150 mM KCl, 3 mM MgCl2, 0.01% Triton X-100, 500 ug/ml BSA, 20 U/ml SUPERase-In, 4 C; UNK is unkempt and MSI1 is Musashi-1; names of the RNAs are library labels; protein concentration not given here; high values mean tight binding.
In turn, B1 returned a binding signal of 0.351 enrichment R. B2 came in with a binding signal of 0.904 enrichment R. B3 registered a binding signal of 0.758 enrichment R. On to B4, for which the binding signal was determined as 0.755 enrichment R. For B5 the value was 0.935 enrichment R. For B6 the value was 0.61 enrichment R; for B7, 0.724 enrichment R. In turn, B8 gave a binding signal of 0.949 enrichment R. For B9 the value was 2.92 enrichment R; for B10, 2.06 enrichment R; for B11, 1.15 enrichment R. In turn, B12 displayed a binding signal of 0.964 enrichment R. For B13 the value was 0.928 enrichment R; for B14, 1.32 enrichment R; for B15, 0.773 enrichment R. The molecule B16 gave a binding signal of 0.943 enrichment R. B17 yielded a binding signal of 1.45 enrichment R. In turn, B18 returned a binding signal of 1.24 enrichment R. For B19 the value was 0.678 enrichment R. The molecule B20 yielded a binding signal of 0.62 enrichment R. For B21 the value was 1.8 enrichment R.

Molecule B22 showed a binding signal of 1.8 enrichment R.
